In the supplement of paper PMC3334620:
Whole data set: some 33,000 sequences, median “E-score (-0.5 to 0.5)” near -0.054, cut for the highest 2% near 0.35. The list shows a part of the results.

These sequences were tested against T1, Stb5 (UniProt P38699) (assay: PBM E-score (8-mer binding enrichment) (E-score (-0.5 to 0.5)); higher = stronger / more preferred TF binding; most listed sequences are background and not binding sites). Details: protein concentration: 200 nM; construct: GST-full length.
T1 sequence: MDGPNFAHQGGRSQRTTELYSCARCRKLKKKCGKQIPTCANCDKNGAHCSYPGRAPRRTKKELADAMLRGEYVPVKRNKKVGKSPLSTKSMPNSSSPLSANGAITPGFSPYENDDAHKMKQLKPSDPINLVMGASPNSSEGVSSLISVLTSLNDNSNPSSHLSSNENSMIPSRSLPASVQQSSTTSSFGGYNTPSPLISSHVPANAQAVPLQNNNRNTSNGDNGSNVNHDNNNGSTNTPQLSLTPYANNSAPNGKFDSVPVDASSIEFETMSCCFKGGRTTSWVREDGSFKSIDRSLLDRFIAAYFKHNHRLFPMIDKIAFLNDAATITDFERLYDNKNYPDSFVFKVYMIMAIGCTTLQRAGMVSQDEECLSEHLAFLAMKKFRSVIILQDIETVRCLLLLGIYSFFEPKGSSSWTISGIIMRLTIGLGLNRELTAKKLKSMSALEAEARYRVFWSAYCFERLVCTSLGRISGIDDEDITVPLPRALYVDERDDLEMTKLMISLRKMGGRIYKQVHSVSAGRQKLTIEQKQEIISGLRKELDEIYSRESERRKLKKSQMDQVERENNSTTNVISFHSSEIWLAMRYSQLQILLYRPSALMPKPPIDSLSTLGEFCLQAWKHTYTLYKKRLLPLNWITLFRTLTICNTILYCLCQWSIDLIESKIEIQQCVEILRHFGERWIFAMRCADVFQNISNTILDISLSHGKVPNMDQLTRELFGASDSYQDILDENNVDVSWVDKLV
Method in brief: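 Bound GST-tagged yeast transcription factors, applied at about 100-200 nM to double-stranded universal all-10-mer Agilent arrays, were detected with fluorescent anti-GST. Scans were normalised with masliner. A modified Wilcoxon-Mann-Whitney statistic, the E-score, was assigned to each ungapped eight-base word pooled with its reverse complement by the Universal PBM Analysis Suite.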

Sequence	PBM E-score
AATTCGTA	-0.11
CCTTTGCC	-0.131
GAGAGCGA	-0.225
CACACATG	-0.0905
GGTGTGAA	0.22
ACATTAGA	-0.214
CCTAATAG	-0.0857
CGTTGCAG	-0.146
ACATCTAG	-0.273
CTTCATAC	-0.0846
ATCAACAC	0.113
CCGTGCGA	0.14
CTGAAAGA	-0.108
TCTAGACA	-0.138
AAGCAGAC	-0.318
AGTGGAAA	-0.173
GGCAATAC	0.319
CGAGACCG	0.179
GCCTTCGA	-0.137
CTTATCCA	-0.105
CCATCCCG	-0.0664
AAAAGATA	-0.0528
ACCATGGC	0.0211
GATTTGCA	-0.121
AACTCCTG	0.0386

Sequence	PBM E-score
AACCGATA	0.169
TATCTCAA	-0.218
CTGTCAAA	-0.198
ATAGGCAT	-0.169
ACTACTAT	-0.0231
GTCACACA	-0.19
GATGGCGC	0.108
CGTGGATC	-0.124
ACGTAAGA	-0.293
GACTCGAA	-0.0121
TAATTCAA	-0.0688
CTGTCGCC	-0.00604
GCGAGTCC	0.0882
ATCGGGCC	0.297
AATCAACA	-0.0804
CTTGAGCC	-0.0692
GAGCTCTA	-0.177
CGCCTGGA	-0.0581
GATCACCC	-0.134
CGTGCACC	-0.0024
ACTGCTGG	-0.276
ACCTACTG	-0.114
CTGCGAGA	-0.238
ACAATTCA	-0.162
ATGTATTC	-0.0488

Sequence	PBM E-score
ACACCTGC	-0.0136
TCCTGTAA	-0.164
CTCGGCCA	0.0161
AAAGTTTG	-0.169
GCTCAGTA	-0.142
ACGAGTAA	-0.0273
CTTATAAC	0.184
ATACAGCG	0.003
CTACCCAC	-0.153
TCAACAGA	-0.0107
CGCAGTGC	-0.00674
ACGTATCG	-0.154
AGCGAGAA	-0.258
ACGTGCTC	-0.0864
ACGGCTCA	-0.2
ATACTAAC	0.0209
CAGAAGCA	-0.0951
ACGTACTG	-0.179
CCCGGGCG	0.298
CACGTAGG	-0.109
CGGAATTC	0.0284
CTTATTAC	0.0671
ACCGTGCC	0.211
GTAAAGTA	-0.0497
CCAATGTA	-0.126

Sequence	PBM E-score
GCACGACC	-0.176
CAAGTGTC	-0.229
AACCAGAG	-0.249
AAGCGGGT	0.146
ATTCCCTC	-0.179
CCTTAAGA	-0.0973
GAACAGAA	-0.151
ATATAGAG	-0.107
ACCTCCTA	-0.101
CAGAATCG	0.0474
GCAGGATA	-0.0221
AGTTACAC	-0.0511
CGACATAC	0.0202
AGTTGGAT	0.0412
GACGGCAC	0.133
GACCCGAC	0.295
TATCATGA	-0.12
ACCTAGAA	0.0442
ACCTTATA	0.0137
CCAAACGG	0.216
GCCTTCCA	-0.115
AATTGGCC	-0.224
ATTTATAC	0.194
AGCCGGAC	0.272
CGCAGGTA	0.175

Sequence	PBM E-score
GGGGAGAA	0.179
CGCCCCCC	0.0618
CCGGTTAA	0.336
CGTTACTC	-0.0202
CCATCTCA	-0.236
CAAGTCGC	-0.193
ACGAGCAC	-0.213
ACCTTCAA	-0.0982
AGAAATTG	0.0922
CCATCGCA	-0.036
GGCCTATA	0.16
CTACTCTC	-0.151
ATACGCTC	0.0104
AGTGCGGC	0.181
AATTTTAG	-0.263
CGTTGGTC	-0.0222
CCTTTCGC	0.236
ACTCCTAT	-0.00623
CACCGTAG	0.265
CGCCCGCG	0.266
CGGGTACA	0.195
CCTTCCCA	-0.0782
AGTGGGAT	-0.213
AAGACCCA	-0.227
AAATAACA	0.176

Sequence	PBM E-score
GCACACGC	-0.13
CTAATACA	-0.109
GATACGGC	0.141
TAATCTAA	0.0106
CCAGAAGC	0.0499
ATAGCCCC	0.317
GCCAAGCA	-0.299
CAGATCAA	-0.0808
CCATCAAA	-0.102
GTATCATA	0.00154
AAGCCTTC	-0.212
CTGGACTC	-0.169
ACGTCAGA	-0.346
CGGTGAAG	0.12
CCGGCGGC	0.327
CACGACAC	-0.0256
CCACAAGA	-0.188
GGATAAAA	0.216
ATAGCATG	-0.251
AGACACAC	-0.247
CGAACCCC	0.28
ATGTTGTC	-0.063
AGGTGCGC	0.0592
CTGAACCC	-0.0816
CCAACGAA	-0.164

Sequence	PBM E-score
GAAGTTCC	0.0956
GAATTCTA	-0.248
GTACTCCA	-0.229
GCGACAAC	-0.0148
AAGTAACC	-0.0633
GCCTAATA	0.103
ATGCGTCA	-0.306
CCTCATTC	-0.192
TAGACCGA	0.208
CTATAAAA	-0.00164
ATCGTATG	-0.331
AACAACTA	-0.0698
TCCAGCGA	-0.167
CGAGGAGC	-0.0797
GCAACTAC	0.0347
CTCTATGC	-0.153
GTTACCGA	0.197
GCTAGCCA	-0.154
CACGACTA	-0.254
TAGAACAA	-0.15
CACGGGCC	0.294
CGGATTAA	0.231
